Data taken from the supplement of paper PMC11741623.
Some of the results follow. Interaction screen of human proteins with wild-type SARS-CoV-2 proteins by split-DHFR complementation in yeast, 1 µg/mL methotrexate. Value = fitness of the pair (three or more lineages) minus that of the viral protein without a human partner, on a scale set by negative (0) and fused positive (1) controls, mean of up to three cultures; higher = more likely to interact. Active = false discovery rate below 0.05 (one-sided t-test) in at least one culture. Nearly all pairs are not hits, and differences among them are mostly noise (correlation between cultures about 0.3); most hits were seen in one culture only. Human sequences are the Swiss-Prot entries looked up by gene name; the clone may be another isoform. NSP2 values were corrected by the authors for a growth advantage. Listed are human proteins with a hit and a random twelfth of the others.

B1: TMEM59, Q9BXS4 (protein)
chain: MAAPKGSLWVRTQLGLPPLLLLTMALAGGSGTASAEAFDSVLGDTASCHRACQLTYPLHTYPKEEELYACQRGCRLFSICQFVDDGIDLNRTKLECESACTEAYSQSDEQYACHLGCQNQLPFAELRQEQLMSLMPKMHLLFPLTLVRSFWSDMMDSAQSFITSSWTFYLQADDGKIVIFQSKPEIQYAPHLEQEPTNLRESSLSKMSYLQMRNSQAHRNFLEDGESDGFLRCLSLNSGWILTTTLVLSVMVLLWICCATVATAVEQYVPSEKLSIYGDLEFMNEQKLNRYPASSLVVVRSKTEDHEEAGPLPTKVNLAHSEI
B2: GMCL1, Q96IK5 (protein)
chain: MGSLSSRVLRQPRPALAQQAQGARAGGSARRPDTGDDAAGHGFCYCAGSHKRKRSSGSFCYCHPDSETDEDEEEGDEQQRLLNTPRRKKLKSTSKYIYQTLFLNGENSDIKICALGEEWSLHKIYLCQSGYFSSMFSGSWKESSMNIIELEIPDQNIDVEALQVAFGSLYRDDVLIKPSRVVAILAAACLLQLDGLIQQCGETMKETVNVKTVCGYYTSAGTYGLDSVKKKCLEWLLNNLMTHQNVELFKELSINVMKQLIGSSNLFVMQVEMDIYTALKKWMFLQLVPSWNGSLKQLLTETDVWFSKQRKDFEGMAFLETEQGKPFVSVFRHLRLQYIISDLASARIIEQDAVVPSEWLSSVYKQQWFAMLRAEQDSEVGPQEINKEELEGNSMRCGRKLAKDGEYCWRWTGFNFGFDLLVTYTNRYIIFKRNTLNQPCSGSVSLQPRRSIAFRLRLASFDSSGKLICSRTTGYQILTLEKDQEQVVMNLDSRLLIFPLYICCNFLYISPEKKN
B3: ACPL2, Q8TE99 (protein)
chain: MLFRNRFLLLLALAALLAFVSLSLQFFHLIPVSTPKNGMSSKSRKRIMPDPVTEPPVTDPVYEALLYCNIPSVAERSMEGHAPHHFKLVSVHVFIRHGDRYPLYVIPKTKRPEIDCTLVANRKPYHPKLEAFISHMSKGSGASFESPLNSLPLYPNHPLCEMGELTQTGVVQHLQNGQLLRDIYLKKHKLLPNDWSADQLYLETTGKSRTLQSGLALLYGFLPDFDWKKIYFRHQPSALFCSGSCYCPVRNQYLEKEQRRQYLLRLKNSQLEKTYGEMAKIVDVPTKQLRAANPIDSMLCHFCHNVSFPCTRNGCVDMEHFKVIKTHQIEDERERREKKLYFGYSLLGAHPILNQTIGRMQRATEGRKEELFALYSAHDVTLSPVLSALGLSEARFPRFAARLIFELWQDREKPSEHSVRILYNGVDVTFHTSFCQDHHKRSPKPMCPLENLVRFVKRDMFVALGGSGTNYYDACHREGF
B4: YWHAQ, P27348 (protein)
chain: MEKTELIQKAKLAEQAERYDDMATCMKAVTEQGAELSNEERNLLSVAYKNVVGGRRSAWRVISSIEQKTDTSDKKLQLIKDYREKVESELRSICTTVLELLDKYLIANATNPESKVFYLKMKGDYFRYLAEVACGDDRKQTIDNSQGAYQEAFDISKKEMQPTHPIRLGLALNFSVFYYEILNNPELACTLAKTAFDEAIAELDTLNEDSYKDSTLIMQLLRDNLTLWTSDSAGEECDAAEGAEN
B5: ZBTB6, Q15916 (protein)
chain: MAAESDVLHFQFEQQGDVVLQKMNLLRQQNLFCDVSIYINDTEFQGHKVILAACSTFMRDQFLLTQSKHVRITILQSAEVGRKLLLSCYTGALEVKRKELLKYLTAASYLQMVHIVEKCTEALSKYLEIDLSMKNNNQHTDLCQSSDPDVKNEDENSDKDCEIIEISEDSPVNIDFHVKEEESNALQSTVESLTSERKEMKSPELSTVDIGFKDNEICILHVESISTAGVENGQFSQPCTSSKASMYFSETQHSLINSTVESRVAEVPGNQDQGLFCENTEGSYGTVSEIQNLEEGYSLRHQCPRCPRGFLHVENYLRHLKMHKLFLCLQCGKTFTQKKNLNRHIRGHMGIRPFQCTVCLKTFTAKSTLQDHLNIHSGDRPYKCHCCDMDFKHKSALKKHLTSVHGRSSGEKLSRPDLKRQSLL
B6: EXTL3, O43909 (protein)
chain: MTGYTMLRNGGAGNGGQTCMLRWSNRIRLTWLSFTLFVILVFFPLIAHYYLTTLDEADEAGKRIFGPRVGNELCEVKHVLDLCRIRESVSEELLQLEAKRQELNSEIAKLNLKIEACKKSIENAKQDLLQLKNVISQTEHSYKELMAQNQPKLSLPIRLLPEKDDAGLPPPKATRGCRLHNCFDYSRCPLTSGFPVYVYDSDQFVFGSYLDPLVKQAFQATARANVYVTENADIACLYVILVGEMQEPVVLRPAELEKQLYSLPHWRTDGHNHVIINLSRKSDTQNLLYNVSTGRAMVAQSTFYTVQYRPGFDLVVSPLVHAMSEPNFMEIPPQVPVKRKYLFTFQGEKIESLRSSLQEARSFEEEMEGDPPADYDDRIIATLKAVQDSKLDQVLVEFTCKNQPKPSLPTEWALCGEREDRLELLKLSTFALIITPGDPRLVISSGCATRLFEALEVGAVPVVLGEQVQLPYQDMLQWNEAALVVPKPRVTEVHFLLRSLSDSDLLAMRRQGRFLWETYFSTADSIFNTVLAMIRTRIQIPAAPIREEAAAEIPHRSGKAAGTDPNMADNGDLDLGPVETEPPYASPRYLRNFTLTVTDFYRSWNCAPGPFHLFPHTPFDPVLPSEAKFLGSGTGFRPIGGGAGGSGKEFQAALGGNVPREQFTVVMLTYEREEVLMNSLERLNGLPYLNKVVVVWNSPKLPSEDLLWPDIGVPIMVVRTEKNSLNNRFLPWNEIETEAILSIDDDAHLRHDEIMFGFRVWREARDRIVGFPGRYHAWDIPHQSWLYNSNYSCELSMVLTGAAFFHKYYAYLYSYVMPQAIRDMVDEYINCEDIAMNFLVSHITRKPPIKVTSRWTFRCPGCPQALSHDDSHFHERHKCINFFVKVYGYMPLLYTQFRVDSVLFKTRLPHDKTKCFKFI
B7: KCTD12, Q96CX2 (protein)
chain: MALADSTRGLPNGGGGGGGSGSSSSSAEPPLFPDIVELNVGGQVYVTRRCTVVSVPDSLLWRMFTQQQPQELARDSKGRFFLDRDGFLFRYILDYLRDLQLVLPDYFPERSRLQREAEYFELPELVRRLGAPQQPGPGPPPSRRGVHKEGSLGDELLPLGYSEPEQQEGASAGAPSPTLELASRSPSGGAAGPLLTPSQSLDGSRRSGYITIGYRGSYTIGRDAQADAKFRRVARITVCGKTSLAKEVFGDTLNESRDPDRPPERYTSRYYLKFNFLEQAFDKLSESGFHMVACSSTGTCAFASSTDQSEDKIWTSYTEYVFCRE
B8: MLPH, Q9BV36 (protein)
chain: MGKKLDLSKLTDEEAQHVLEVVQRDFDLRRKEEERLEALKGKIKKESSKRELLSDTAHLNETHCARCLQPYQLLVNSKRQCLECGLFTCKSCGRVHPEEQGWICDPCHLARVVKIGSLEWYYEHVKARFKRFGSAKVIRSLHGRLQGGAGPELISEERSGDSDQTDEDGEPGSEAQAQAQPFGSKKKRLLSVHDFDFEGDSDDSTQPQGHSLHLSSVPEARDSPQSLTDESCSEKAAPHKAEGLEEADTGASGCHSHPEEQPTSISPSRHGALAELCPPGGSHRMALGTAAALGSNVIRNEQLPLQYLADVDTSDEESIRAHVMASHHSKRRGRASSESQIFELNKHISAVECLLTYLENTVVPPLAKGLGAGVRTEADVEEEALRRKLEELTSNVSDQETSSEEEEAKDEKAEPNRDKSVGPLPQADPEVGTAAHQTNRQEKSPQDPGDPVQYNRTTDEELSELEDRVAVTASEVQQAESEVSDIESRIAALRAAGLTVKPSGKPRRKSNLPIFLPRVAGKLGKRPEDPNADPSSEAKAMAVPYLLRRKFSNSLKSQGKDDDSFDRKSVYRGSLTQRNPNARKGMASHTFAKPVVAHQS

biological target: SARS-CoV-2 NSP14; assay: yeast fitness gain over the viral ORF with no human partner (scaled fitness); higher = more likely to interact
Description: (§1)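 Split mouse DHFR complementation in pooled diploid yeast: human ORFeome clones carry one fragment and viral ORFs the other; barcoded lineages compete in 1 µg/mL methotrexate and fitness is read by barcode sequencing in up to three cultures.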

With B1 as the binder, how does the yeast fitness gain read?
The yeast fitness gain was inactive: 0.0802.

biological target: SARS-CoV-2 NSP13; assay: as above
Description: as §1

For B2, which yeast fitness gain is on record?
Its yeast fitness gain is inactive: -0.0203.

How did the yeast fitness gain turn out when B3 was run?
The yeast fitness gain was inactive: -0.154.

For B4, which yeast fitness gain is on record?
The yeast fitness gain was inactive: -0.147.

B5 was tested. Which yeast fitness gain did it give?
The yeast fitness gain was inactive: 0.0619.

How did the yeast fitness gain turn out when B7 was run?
The yeast fitness gain was inactive: -0.37.

For B8, which yeast fitness gain is on record?
Its yeast fitness gain is inactive: -0.342.

biological target: SARS-CoV-2 ORF10; assay: as above
Description: as §1

B2 was tested. Which yeast fitness gain did it give?
The yeast fitness gain was inactive: 0.0186.

biological target: SARS-CoV-2 ORF3B; assay: as above
Description: as §1

How did the yeast fitness gain turn out when B2 was run?
The yeast fitness gain was inactive: 0.0286.

biological target: SARS-CoV-2 ORF9Bwu (the 73-codon ORF); assay: as above
Description: as §1

For B2, which yeast fitness gain is on record?
The yeast fitness gain was inactive: -0.235.

biological target: SARS-CoV-2 NSP2; assay: as above
Description: as §1

With B3 as the binder, how does the yeast fitness gain read?
The yeast fitness gain was inactive: -0.356.

For B5, which yeast fitness gain is on record?
The yeast fitness gain was inactive: -0.438.

Which yeast fitness gain does the source give for B6 here?
Its yeast fitness gain is inactive: 0.0565.

biological target: SARS-CoV-2 ORF7A; assay: as above
Description: as §1

How did the yeast fitness gain turn out when B4 was run?
Its yeast fitness gain is inactive: -0.328.

biological target: SARS-CoV-2 NSP5; assay: as above
Description: as §1

For B5, which yeast fitness gain is on record?
Its yeast fitness gain is inactive: -0.141.

biological target: SARS-CoV-2 ORF6; assay: as above
Description: as §1

Which yeast fitness gain does the source give for B5 here?
Its yeast fitness gain is inactive: -0.00554.

B8 was tested. Which yeast fitness gain did it give?
The yeast fitness gain was inactive: -0.129.

biological target: SARS-CoV-2 ORF7B; assay: as above
Description: as §1

For B5, which yeast fitness gain is on record?
Its yeast fitness gain is inactive: -0.0782.

biological target: SARS-CoV-2 ORF9B; assay: as above
Description: as §1

For B5, which yeast fitness gain is on record?
Its yeast fitness gain is inactive: 0.0317.

biological target: SARS-CoV-2 NSP7; assay: as above
Description: as §1

B7 was tested. Which yeast fitness gain did it give?
Its yeast fitness gain is inactive: -0.0271.

biological target: SARS-CoV-2 NSP9; assay: as above
Description: as §1

B7 was tested. Which yeast fitness gain did it give?
The yeast fitness gain was inactive: 0.0307.

biological target: SARS-CoV-2 ORF8; assay: as above
Description: as §1

B7 was tested. Which yeast fitness gain did it give?
The yeast fitness gain was inactive: 0.0162.
